± gives the standard deviation of the averaged measurements. The list shows a part of the results.

This assay deals with PfAP2-G AP2 domain (GST-tagged). The assay is described as follows: gcPBM binding intensity (ln(normalized median fluorescence intensity)); higher = stronger DNA binding. The essentials:
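Binding intensity is the highest Masliner-normalised natural-log median intensity over replicate spots in either probe orientation. To obtain it, GST-tagged P. falciparum DNA-binding domains made in E. coli were incubated for 1 h on an Agilent 4 × 180k array of primer-extended double-stranded 36-bp intergenic genomic probes plus negative controls. Detection used Alexa488 anti-GST antibody with scanning at 488 nm.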
Take “TATAAATTTATATATGCATGTCAGAAAAAAAAGTAA [TGCATGCA_site414]”: the “gcPBM binding intensity (ln)” value was determined as 10.055 ± 0.007.
The result for “CAACAAAATAAACACACACACACAAACACAAAAAAA [CACACA_site5806]” reads 10.3 ± 0.27; that for “GAACTCATTACAAAGTGTACAAATTAAATAAATGGT [XGTACX_site3995]”, 11.1 ± 0.43; that for TTTTTCTTATTTGGATTGCACTACATATATATATAT, 10.6 ± 0.47.
For the sequence “AGGTGCTTAATATATACACACATACAGATATATATA [CACACA_site5552]”, the “gcPBM binding intensity (ln)” value was determined as 10.02 ± 0.085.
Turning to “ATAAGGTTACAACAAACACACAAAGGAATATACACA [CACACA_site7840]”, the “gcPBM binding intensity (ln)” value came out at 10.2 ± 0.21.
The result for “AAAATTTTTTGAAATAGTACTTTTTTATATATATAT [XGTACX_site2634]” reads 11.2 ± 0.62; that for “GGATATTAATAAATATGTACATATGTAGATTTATTA [XGTACX_site554]”, 11.1 ± 0.67.
The result for “ATATATAAATATATATGTACATAAATATATATCTTT [XGTACX_site6910]” reads 11.2 ± 0.67; that for “AAGAAAAAAAAAAAAACACACATATATATATATATA [CACACA_site2027]”, 9.93 ± 0.57; that for “TGTATACCTTAATATACACACATACCTATATTTATA [CACACA_site6746]”, 9.905 ± 0.035.
With “TATAAATAGAGGAAGCGTACATATATATATATATAT [XGTACX_site4993]”, the “gcPBM binding intensity (ln)” value was found to be 11.3 ± 1.
Take “ACAAAAAATTAATGAGAAATGGAATAATAAGTTATA [GTGCAC_negctrl_site321]”: the “gcPBM binding intensity (ln)” value was determined as 9.875 ± 0.021.
For “TAAAGTTTTTCCTATCTATATTTATATTATAAATGA [XGTACX_negctrl_site20]”, the “gcPBM binding intensity (ln)” value amounted to 9.81 ± 0.071.
“TATGATTTTAATGAAACACACAATTTTATGTTAATA [CACACA_site311]”: the “gcPBM binding intensity (ln)” value came out at 9.82 ± 0.11.
With “TATAAAGGTATACAAAGTACAAAATACATATATACT [XGTACX_site6431]”, the “gcPBM binding intensity (ln)” value was determined as 10.7 ± 0.49.
The result for “GTGAGTGAAATATGCAAACACACACCCGAAAAATGT [CACACA_site3197]” reads 10.14 ± 0.049.
Turning to “TGAAGTATAATTTATCTAATATGTTATATTTTATTT [TGCATGCA_negctrl_site56]”, the “gcPBM binding intensity (ln)” value came to 9.38 ± 0.18.
“TGTGTATAAGTCACTTGTACTAGTAGTAAAAAAAAA [XGTACX_site4341]”: the “gcPBM binding intensity (ln)” value was determined as 11.2 ± 0.88.
The result for “TAATATATGTTATATACACACATATAAATATAAATA [CACACA_site6339]” reads 9.94 ± 0.18.
The result for “TCTTATAAACTCTGCACACATAATATATTAAATGAG [CACACA_site1936]” reads 10.1 ± 0.22; that for “AATATAGGTATATCCACACACATATTTATATTTATA [CACACA_site6867]”, 9.93 ± 0.028.
Regarding “TTTAATATTATTATTTTACACACTTTTTTCCTTTTA [CACACA_site8780]”, the “gcPBM binding intensity (ln)” value was 9.9 ± 0.11.
With “CAAATAATATTATGAAGTACTTCAAATTTTGAAAGA [XGTACX_site2530]”, the “gcPBM binding intensity (ln)” value worked out at 11.3 ± 0.72.
As to “AGATAATAGGTTACTTGTACATATAAATAAATATAT [XGTACX_site158]”, the “gcPBM binding intensity (ln)” value is 11.1 ± 0.67.
Turning to “GTAGTGGTTGAATATACACACATATATATATATATA [CACACA_site2651]”, the “gcPBM binding intensity (ln)” value turned out to be 10.1 ± 0.23.
“AACGTGTATTTATATTGTACACATTCATACATCAAA [XGTACX_site3644]”: the “gcPBM binding intensity (ln)” value is 11.4 ± 0.95.
The result for “ACCCTTTTATATAAGAGTACAAACGTATTATTAAAT [XGTACX_site2221]” reads 11.2 ± 0.76.
Take “AATATTAAAAACAAAACACACAAAAAAAAATAAAAT [CACACA_site702]”: the “gcPBM binding intensity (ln)” value was found to be 9.94 ± 0.071.
As to “ATATATGACTAATAAAGTACATACTTCATATAATTA [XGTACX_site6699]”, the “gcPBM binding intensity (ln)” value amounted to 11.2 ± 0.74.
As for TATATTATATATATACTGCACTGTTTTACAAAATTA, the “gcPBM binding intensity (ln)” value is 10.1 ± 0.26.
The result for “ATATTAATTTCTCATGCATGTTCTACCCAATTGTAA [TGCATGCA_site355]” reads 10.1 ± 0.071; that for TTTTGTTATTATGAAGTGCATTTATGTTCATGTCTA, 10.1 ± 0.21.
As to “AAAAAAAAAAAAAATTCACACAAGACTACTACATTT [CACACA_site4195]”, the “gcPBM binding intensity (ln)” value turned out to be 9.77 ± 0.13.
The result for “AAAATCTAATATAATGCACACATAAAAAAAAATCAA [CACACA_site9211]” reads 10 ± 0.2.
On to “CTAAAATGTAAAAACGCACACATAATATTATAAAAA [CACACA_site2788]”, for which the “gcPBM binding intensity (ln)” value stood at 10.2 ± 0.23.
The result for “AAAGCATGTTAATATGTATAAATACTGATCATTCAC [GTGCAC_negctrl_site576]” reads 9.865 ± 0.049; that for “TTTTAGTTATTGTATTATTATTAATATATAATATCT [CACACA_negctrl_site1528]”, 9.79 ± 0.12.
On to “CTTGTCATTTGGCACACACACATGTATAGGTTATTA [CACACA_site5656]”, for which the “gcPBM binding intensity (ln)” value came to 10.4 ± 0.2.
As to “TATATAAATAAACACACACACACCTTATAATTATTA [CACACA_site9345]”, the “gcPBM binding intensity (ln)” value worked out at 9.94 ± 0.13.
Consider “AACAGATAATATAAAAAAAAAAAAAAAAATAATTAA [GTGCAC_negctrl_site69]”, for which the “gcPBM binding intensity (ln)” value stood at 9.44 ± 0.028.
As for “TGAATAAATCAAAGCACACATACACAGACATATATA [CACACA_site4316]”, the “gcPBM binding intensity (ln)” value is 10.1 ± 0.16.
As to “TTTTGTACATCTTTTGCACACGTAATGTTATTATAA [CACACA_site1259]”, the “gcPBM binding intensity (ln)” value is 11.4 ± 0.98.
Consider “AATAAATAAAAATGCACACAGTTAACATGTTGAATT [CACACA_site4795]”, for which the “gcPBM binding intensity (ln)” value was determined as 10.005 ± 0.007.

The values above are taken from the supplement of paper PMC11417369.
